Structures are written as SMILES. This is one part of the list. Many values rest on one well or one pass, so single values are uncertain.
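Further: cells treated in 1,536-well plates, then fixed and DAPI-stained, with nuclei counted from automated high-throughput microscope images.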

For this test, the system named is COLO829. In words: cell count relative to DMSO control; melanoma cells; higher = more viable cells. The conditions noted are these: library dose: standard library concentration; 72 h.
In the case of `Cc1cc(Nc2cc(N3CCN(C)CC3)nc(Sc3ccc(NC(=O)C4CC4)cc3)n2)n[nH]1` [Tozasertib] + CC(=O)O[C@@]12CO[C@@H]1C[C@H](O)[C@@]1(C)C(=O)[C@H](O)C3=C(C)[C@@H](OC(=O)[C@H](O)[C@@H](NC(=O)OC(C)(C)C)c4ccccc4)C[C@@](O)([C@@H](OC(=O)c4ccccc4)[C@H]21)C3(C)C [Docetaxel] (first compound 0.03 µM, partner dose 0.0005 µM), the cell count was 40.7%.

As to `CC[C@]1(O)C[C@H]2CN(CCc3c([nH]c4ccccc34)[C@@](C(=O)OC)(c3cc4c(cc3OC)N(C=O)[C@H]3[C@@](O)(C(=O)OC)[C@H](OC(C)=O)[C@]5(CC)C=CCN6CC[C@]43[C@@H]65)C2)C1` [vincristine] + Oc1nc(-c2ccc(C(F)(F)F)cc2)nc2c1CSCC2 [XAV939] (first compound 0.0005 µM, partner dose 10 µM), the cell count is 88.1%.

`CC[C@]1(O)C[C@H]2CN(CCc3c([nH]c4ccccc34)[C@@](C(=O)OC)(c3cc4c(cc3OC)N(C=O)[C@H]3[C@@](O)(C(=O)OC)[C@H](OC(C)=O)[C@]5(CC)C=CCN6CC[C@]43[C@@H]65)C2)C1` [vincristine] + c1cc(-c2cnn3cc(-c4ccc(OCCN5CCCCC5)cc4)cnc23)ccn1 [Dorsomorphin] (first compound 0.0005 µM, partner dose 2 µM) had a cell count of 60.7%.

Take `Cc1cc(Nc2cc(N3CCN(C)CC3)nc(Sc3ccc(NC(=O)C4CC4)cc3)n2)n[nH]1` [Tozasertib] + COc1ccc(-c2ccc3c(N4CCOCC4)nc(N4C[C@@H](C)O[C@@H](C)C4)nc3n2)cc1CO [KU0063794] (first compound 0.03 µM, partner dose 0.1 µM): the cell count turned out to be 82.2%.

`CC[C@]1(O)C[C@H]2CN(CCc3c([nH]c4ccccc34)[C@@](C(=O)OC)(c3cc4c(cc3OC)N(C=O)[C@H]3[C@@](O)(C(=O)OC)[C@H](OC(C)=O)[C@]5(CC)C=CCN6CC[C@]43[C@@H]65)C2)C1` [vincristine] + O=C(Nc1cc(C(F)(F)F)cc(C(F)(F)F)c1)c1cc(Cl)ccc1O [IMD0354] (first compound 0.0005 µM, partner dose 0.08 µM) gave a cell count of 82.3%.

Regarding `N#CC[C@H](C1CCCC1)n1cc(-c2ncnc3[nH]ccc23)cn1` [ruxolitinib] + Nc1cccc2c1CN(C1CCC(=O)NC1=O)C2=O [lenalidomide] (first compound 5 µM, partner dose 5 µM), the cell count was 129%.

Turning to `CC[C@]1(O)C[C@H]2CN(CCc3c([nH]c4ccccc34)[C@@](C(=O)OC)(c3cc4c(cc3OC)N(C=O)[C@H]3[C@@](O)(C(=O)OC)[C@H](OC(C)=O)[C@]5(CC)C=CCN6CC[C@]43[C@@H]65)C2)C1` [vincristine] + COCC[n+]1c2c(n(Cc3cnccn3)c1C)C(=O)c1ccccc1C2=O [YM155] (first compound 0.0005 µM, partner dose 0.002 µM), the cell count worked out at 79%.

Take `Cc1cc(Nc2cc(N3CCN(C)CC3)nc(Sc3ccc(NC(=O)C4CC4)cc3)n2)n[nH]1` [Tozasertib] + O=C(CCCCCCC(=O)Nc1ccccc1)NO [vorinostat] (first compound 0.03 µM, partner dose 0.4 µM): the cell count stood at 55.2%.

`N#CC[C@H](C1CCCC1)n1cc(-c2ncnc3[nH]ccc23)cn1` [ruxolitinib] + CN(c1ncccc1CNc1nc(Nc2ccc3c(c2)CC(=O)N3)ncc1C(F)(F)F)S(C)(=O)=O [PF562271] (first compound 5 µM, partner dose 0.4 µM): the cell count stood at 73.9%.

The molecule `N#CC[C@H](C1CCCC1)n1cc(-c2ncnc3[nH]ccc23)cn1` [ruxolitinib] + CC(=O)O[C@@]12CO[C@@H]1C[C@H](O)[C@@]1(C)C(=O)[C@H](O)C3=C(C)[C@@H](OC(=O)[C@H](O)[C@@H](NC(=O)OC(C)(C)C)c4ccccc4)C[C@@](O)([C@@H](OC(=O)c4ccccc4)[C@H]21)C3(C)C [Docetaxel] (first compound 5 µM, partner dose 0.0005 µM) yielded a cell count of 44.7%.

In turn, `N#CC[C@H](C1CCCC1)n1cc(-c2ncnc3[nH]ccc23)cn1` [ruxolitinib] + C=C(c1ccc(C(=O)O)cc1)c1cc2c(cc1C)C(C)(C)CCC2(C)C [Bexarotene] (first compound 5 µM, partner dose 10 µM) showed a cell count of 95.5%.

Turning to `CC[C@]1(O)C[C@H]2CN(CCc3c([nH]c4ccccc34)[C@@](C(=O)OC)(c3cc4c(cc3OC)N(C=O)[C@H]3[C@@](O)(C(=O)OC)[C@H](OC(C)=O)[C@]5(CC)C=CCN6CC[C@]43[C@@H]65)C2)C1` [vincristine] + O=S(=O)(c1ccccc1)N(CC(F)(F)F)c1ccc(C(O)(C(F)(F)F)C(F)(F)F)cc1 [T0901317] (first compound 0.0005 µM, partner dose 7 µM), the cell count worked out at 47.9%.

The molecule `Cc1cc(Nc2cc(N3CCN(C)CC3)nc(Sc3ccc(NC(=O)C4CC4)cc3)n2)n[nH]1` [Tozasertib] + COc1ccc(C2=N[C@@H](c3ccc(Cl)cc3)[C@@H](c3ccc(Cl)cc3)N2C(=O)N2CCNC(=O)C2)c(OC(C)C)c1 [Nutlin-3] (first compound 0.03 µM, partner dose 0.5 µM) returned a cell count of 60%.

`CC[C@]1(O)C[C@H]2CN(CCc3c([nH]c4ccccc34)[C@@](C(=O)OC)(c3cc4c(cc3OC)N(C=O)[C@H]3[C@@](O)(C(=O)OC)[C@H](OC(C)=O)[C@]5(CC)C=CCN6CC[C@]43[C@@H]65)C2)C1` [vincristine] + CS(=O)(=O)c1ccc(C(=O)Nc2ccc(Cl)c(-c3ccccn3)c2)c(Cl)c1 [vismodegib] (first compound 0.0005 µM, partner dose 5 µM) came in with a cell count of 67.8%.

On to `CC[C@]1(O)C[C@H]2CN(CCc3c([nH]c4ccccc34)[C@@](C(=O)OC)(c3cc4c(cc3OC)N(C=O)[C@H]3[C@@](O)(C(=O)OC)[C@H](OC(C)=O)[C@]5(CC)C=CCN6CC[C@]43[C@@H]65)C2)C1` [vincristine] + C#Cc1cccc(Nc2ncnc3cc(OCCOC)c(OCCOC)cc23)c1 [erlotinib] (first compound 0.0005 µM, partner dose 4 µM), for which the cell count worked out at 51.7%.

For `Cc1cc(Nc2cc(N3CCN(C)CC3)nc(Sc3ccc(NC(=O)C4CC4)cc3)n2)n[nH]1` [Tozasertib] + Cc1cn(-c2cc(NC(=O)c3ccc(C)c(Nc4nccc(-c5cccnc5)n4)c3)cc(C(F)(F)F)c2)cn1 [nilotinib] (first compound 0.03 µM, partner dose 1 µM), the cell count worked out at 90%.

Turning to `Cc1cc(Nc2cc(N3CCN(C)CC3)nc(Sc3ccc(NC(=O)C4CC4)cc3)n2)n[nH]1` [Tozasertib] + O=C(O)C(=O)Nc1sc2c(c1C(=O)O)CCNC2 [TCS401] (first compound 0.03 µM, partner dose 8.33333 µM), the cell count was 73.1%.

`Cc1cc(Nc2cc(N3CCN(C)CC3)nc(Sc3ccc(NC(=O)C4CC4)cc3)n2)n[nH]1` [Tozasertib] + O=S(=O)(c1ccccc1)N(CC(F)(F)F)c1ccc(C(O)(C(F)(F)F)C(F)(F)F)cc1 [T0901317] (first compound 0.03 µM, partner dose 7 µM) returned a cell count of 58.7%.

Molecule `CC[C@]1(O)C[C@H]2CN(CCc3c([nH]c4ccccc34)[C@@](C(=O)OC)(c3cc4c(cc3OC)N(C=O)[C@H]3[C@@](O)(C(=O)OC)[C@H](OC(C)=O)[C@]5(CC)C=CCN6CC[C@]43[C@@H]65)C2)C1` [vincristine] + O=C(/C=C/c1cccnc1)NCCCCC1CCN(C(=O)c2ccccc2)CC1 [FK866] (first compound 0.0005 µM, partner dose 0.05 µM) returned a cell count of 64.2%.

The molecule `Cc1cc(Nc2cc(N3CCN(C)CC3)nc(Sc3ccc(NC(=O)C4CC4)cc3)n2)n[nH]1` [Tozasertib] + OCCn1cc(-c2cnc3nnn(Cc4ccc5ncccc5c4)c3n2)cn1 [PF04217903] (first compound 0.03 µM, partner dose 5 µM) had a cell count of 94.4%.

On to `CC[C@]1(O)C[C@H]2CN(CCc3c([nH]c4ccccc34)[C@@](C(=O)OC)(c3cc4c(cc3OC)N(C=O)[C@H]3[C@@](O)(C(=O)OC)[C@H](OC(C)=O)[C@]5(CC)C=CCN6CC[C@]43[C@@H]65)C2)C1` [vincristine] + C[C@@H]1CCN(C(=O)CC#N)C[C@@H]1N(C)c1ncnc2[nH]ccc12 [CP690550] (first compound 0.0005 µM, partner dose 5 µM), for which the cell count was found to be 77.2%.

Take `Cc1cc(Nc2cc(N3CCN(C)CC3)nc(Sc3ccc(NC(=O)C4CC4)cc3)n2)n[nH]1` [Tozasertib] + CCCCCCCCCCCCCCCCCCOP(=O)([O-])OC1CC[N+](C)(C)CC1 [Perifosine] (first compound 0.03 µM, partner dose 2 µM): the cell count was determined as 68.7%.

For the molecule `CC[C@]1(O)C[C@H]2CN(CCc3c([nH]c4ccccc34)[C@@](C(=O)OC)(c3cc4c(cc3OC)N(C=O)[C@H]3[C@@](O)(C(=O)OC)[C@H](OC(C)=O)[C@]5(CC)C=CCN6CC[C@]43[C@@H]65)C2)C1` [vincristine] + CCCS(=O)(=O)Nc1ccc(F)c(C(=O)c2c[nH]c3ncc(Cl)cc23)c1F [PLX4720] (first compound 0.0005 µM, partner dose 0.4 µM), the cell count was found to be 84.8%.

With `Cc1cc(Nc2cc(N3CCN(C)CC3)nc(Sc3ccc(NC(=O)C4CC4)cc3)n2)n[nH]1` [Tozasertib] + Cc1nc(Nc2ncc(C(=O)Nc3c(C)cccc3Cl)s2)cc(N2CCN(CCO)CC2)n1 [dasatanib] (first compound 0.03 µM, partner dose 0.02 µM), the cell count was determined as 45.2%.
